Experimental data taken from PubChem BioAssay (NCI).
Values joined by “and” are separate entries in the source; they are usually repeats but may differ in a detail not shown here. Equal values may be shown once.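 These data come from cells grown in 96-well plates and exposed to compound for 48 hours at five concentrations. GI50 = concentration required for 50% inhibition of growth. TGI: total growth inhibition.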

Test system: NCI-H322M lung
Test: growth of human tumour cells (NCI), 48 h

SMILES	TGI	GI50
O=C1N2CCN=C2c2ccccc2C1(O)c1ccccc1 (configuration not stated)	> 100 µM	–
O=c1c2ccccc2oc2nccnc12	> 100 µM	–
C=CC[n+]1c(/C=C2\Sc3ccccc3N2C)sc(-c2ccccc2)c1-c1ccccc1	10.9 µM	0.493 µM
COc1cc2c3c(c1OC)C1(C=CC(=O)C=C1)CC3N(C(=O)OC(C)(C)C(Cl)(Cl)Cl)CC2 (configuration not stated)	37.4 µM	–
CSc1nc(NC2CC2)c2c(n1)Sc1nc3ccccc3n1N=C2	34.2 µM	–
O=C1CCCn2c3ccccc3c3ccnc1c32	> 100 µM	–
O=C1OS2(OC(=O)c3cccc4cccc2c34)c2ccccc21 (configuration not stated)	> 100 µM	–
CCCCCCCC(=O)SCC/C=C/[C@@H]1CC(=O)NCc2cccc(n2)CN(Cc2ccc(Cl)cc2)CC(=O)N[C@@H](C(C)C)C(=O)O1	85.9 µM	15.2 µM
O=C1NC(N2CCOCC2)=N/C1=C\c1ccccc1	> 100 µM	–
CC(C)=CCNc1ncnc2c1ncn2C1OC(COP(=O)(O)O)C(O)C1O (configuration not stated)	> 100 µM	6.95 µM
COC(=O)C1=C(O)C(C(=O)OC)[C@@]2(O)[C@@H](C(=O)OC)C(c3ccc(OC(=O)C(Cc4ccccc4)NC(C)=O)cc3)C[C@@H]1[C@@H]2C(=O)OC (some centres not stated)	35.1 µM	14 µM
Cc1cc2nc(N)n[n+]([O-])c2cc1C	> 100 µM	–
Cn1c(=O)c(C2c3ccccc3Oc3c2c(=O)n(C)c2ccccc32)c(O)c2ccccc21 (configuration not stated)	> 100 µM	–
O=C(CCCCCn1c2ccccc2c2c3c(c4c5ccccc5[nH]c4c21)C(=O)N(O)C3=O)N1CCOCC1	7.01 µM	2.29 µM
O=C(O)c1cc(/C=C/c2ccc(O)c(O)c2)ccc1O	> 100 µM	–
C=C1CN(C(=O)c2cc3cc(OC)c(OC)c(OC)c3[nH]2)c2cc([N+](=O)[O-])ccc21	> 100 µM	–
CC(=O)Nc1ccc(S(=O)(=O)/N=c2/sc(S(N)(=O)=O)nn2C)cc1	> 100 µM	–
Cc1cc(CC(O)(C(F)(F)F)C(F)(F)F)cc(CC(O)(C(F)(F)F)C(F)(F)F)n1	16.4 µM	–
COc1c(Cl)ccc(Cl)c1-c1nnc(-c2c(Cl)c(Cl)c(Cl)c(Cl)c2-c2nc3ccc(C(=O)c4ccccc4)cc3[nH]2)o1	> 100 µM	–
COc1cccc(-n2cnc3c(N/N=C/c4ccncc4)ncnc32)c1	> 25 µM	9.19 µM
Cc1cc(C)c2c(=O)n(CC(O)CN3CCN(c4ncccn4)CC3)sc2n1 (configuration not stated)	30.2 µM	–
O=C(O)/C=C/C(=O)Nc1cccc2c1-c1ccccc1C2=O	> 100 µM	–
NS(=O)(=O)OC[C@H]1O[C@@H](n2cnc3c(N[C@H]4CCc5ccccc54)ncnc32)[C@H](O)[C@@H]1O	0.549 µM	0.149 µM
COC(=O)c1nc(N)[nH]c(=O)c1-c1ccc(Cl)cc1	> 100 µM	–
Cc1ccc(N=c2oc3c(ccc4ccccc43)nc2Nc2ccc(C)cc2)cc1	> 100 µM	–

SMILES	TGI	GI50
O=C(O)CSc1ccn(Cc2ccccc2)c1	> 100 µM	–
Cc1c(Br)cccc1NC(=O)c1sc2nc3c(cc2c1N)CN(Cc1ccccc1)CC3	> 50 µM	0.254 µM
Clc1cc(Cl)c2n[se]nc2c1	> 100 µM	–
CC(=O)c1c[nH]c2ccc(-c3ccnc(Nc4ccc(NC(=O)c5cccc(F)c5)c(CN5CCOCC5)c4)n3)cc12	–	0.184 µM
NC(=O)NC1=NCCC(=O)N1CCc1c[nH]c2ccccc12	57.7 µM	–
COc1c2c(cc3oc(=O)ccc13)OC(C)(C)C=C2	> 125 µM	–
CCOc1cccc2cccnc12	> 100 µM	–
O=C(NC12CC3CC(CC(C3)C1)C2)n1cnc2cncnc21	> 100 µM	–
NNC(=S)N/N=C(\c1nc2ccc(Cl)cc2[nH]c1=O)C(O)c1ccc(Cl)cc1Cl (configuration not stated)	> 100 µM	–
CCCCc1c2c(nc3c1CCc1cc(C=O)c(N)nc1-3)/C(=C/c1ccccc1)CCC2	> 100 µM	–
CCOC(=O)Cn1c(=O)c2cc(C)cc3c(Cl)nc4c(OC)c(OC)cc1c4c32	> 100 µM	–
COc1cc(Oc2cnc3cc(N)cc(N)c3n2)cc(OC)c1OC	> 100 µM	> 100 µM
COc1ccc2c(c1)Cc1cc(N=[N+]([O-])c3ccc4c(c3)Cc3cc(OC)ccc3-4)ccc1-2	> 100 µM	–
c1ccc2c3c(c(N4CCNCC4)nc2c1)CCCC3	30.9 µM	–
c1ccc2c(c1)N=c1ccccc1=P21c2ccccc2Nc2ccccc21	13.4 µM	–
CCOC(=O)C(=C=Cc1cccs1)C(=O)c1ccccc1	30.6 µM	–
CCCc1c(OC)c(O)c2c(=O)cc(OC)c3c4c(OC)cc(=O)c5c(O)c(OC)c(CCC)c(c1c23)c54	> 100 µM	–
CN(CCN(C)Cc1ccc(Cl)c(Cl)c1)CCN1CCCC1	> 100 µM	–
O=C(NCCc1ccccc1)C(c1csc2ccccc12)N(C(=O)CCl)c1ccc(-c2cnco2)cc1 (configuration not stated)	3.04 µM	1.63 µM
CC1CCC(O)/C=C/C(=O)OC(C)C(O)/C=C/C(=O)O1 (configuration not stated)	> 100 µM	–
Oc1ccc(Br)cc1CN1CCN(Cc2ccc(Cl)cc2)CC1	> 100 µM	64.1 µM
COC1=CC(=O)c2c(O)c3c(c(O)c2C1=O)CC(C)(O)OC3 (configuration not stated)	11.9 µM	–
COC1=C(NC(C)=O)C(=O)c2nc3n(c2C1=O)CCC3	36 µM	–
N#CCCN(CCN(CCN(C(=O)Nc1ccccc1)c1ccccc1)C(=O)Nc1ccccc1)C(=O)Nc1ccccc1	> 100 µM	–
CC12CCC3=C(CSC4=C3CSc3ccccc34)C1=CCCC2=O (configuration not stated)	> 100 µM	–

SMILES	TGI	GI50
O=C(c1ccc(Cl)cc1)N(C(=S)N1CCN(c2ccccc2)CC1)C1CCCCC1	> 100 µM	–
O=C1CCc2cc([N+](=O)[O-])ccc2O1	> 100 µM	–
COc1cc2c(cc1OC)[C@@H]1[C@H](C2=O)c2ccc([N+](=O)[O-])cc2C(=O)N1CCCBr	1.34 µM	< 0.0187 µM
COC(CO[Si](C)(C)N[Si](C)(C)OCC(OC)c1ccccc1)c1ccccc1 (configuration not stated)	> 100 µM	–
CSCC[C@@H](NC(=O)[C@H](CC(C)C)NC(=O)C(Cc1cnc[nH]1)NC(=O)CNC(=O)[C@@H](NC(=O)[C@H](C)NC(=O)[C@H](Cc1cn(C=O)c2ccccc12)NC(=O)[C@H](CCC(N)=O)NC(=O)[C@@H](N)CC(N)=O)C(C)C)C(N)=O (some centres not stated)	> 100 µM	–
CCSc1sc(-c2ccc(C)cc2)nc1[P+](c1ccccc1)(c1ccccc1)c1ccccc1	1.29 µM	0.339 µM
Cc1cccc2c1NC(c1c(C)[nH]c3ccccc13)C2 (configuration not stated)	> 100 µM	–
CCCCCc1c(C)[nH]c(/C=C2\N=C(c3ccc[nH]3)C=C2Oc2ccc(OC)cc2)c1C	11 µM	0.337 µM and 0.0812 µM
O=C1CCCc2ccc3c(c21)CC1(Cc2cc4c(cc2C1)CCCC4)C3	> 100 µM	–
O=C(CC1Sc2ccccc2NC1=O)Nc1ccc([N+](=O)[O-])cc1[N+](=O)[O-] (configuration not stated)	> 100 µM	–
CC(C)(C)NC(=O)C12C3C4C1C1C2C3C41I (configuration not stated)	> 100 µM	–
CCCCC(=O)Nc1ccc2cc(C(=O)OC)c(=O)[nH]c2n1	> 100 µM	–
S=c1sc2ccccc2n1CN1CCN(Cc2ccccc2)CC1	> 100 µM	–
CN(C)CCNc1ccccn1	> 100 µM	–
CC(=O)OC1CC[C@@]2(C)C(CC(OC3OC(CO)C(O)C(O)C3O)[C@]3(C)C2CCC24CC23CC[C@H]4C(C)CC(O)[C@@H](O)C(C)(C)O)C1(C)C (some centres not stated)	41.9 µM	–
COC(=O)[C@@]12CC3CN(Cc4c1[nH]c1ccccc41)C2CC3=O	> 100 µM	–
COc1ccc(CNCCN2C(=O)c3ccc4c5c(ccc(c35)C2=O)C(=O)N(CCNCc2ccc(OC)cc2)C4=O)cc1	0.92 µM	0.254 µM
CCCCC#Cc1c(I)n(C2OC(CO[Si](C)(C)C(C)(C)C)C3OC(C)(C)OC32)c(=O)[nH]c1=O (configuration not stated)	30.4 µM	15.4 µM
N=C(N)c1ccc(-c2ccc(-c3ccco3)o2)cc1	12.3 µM	3.58 µM
COc1ccc2c(c1)C(CCN)C(=O)N2 (configuration not stated)	> 100 µM	–
O=C(NCCc1ccc(F)cc1)c1cc(/C=C/c2cc(O)ccc2O)ccc1O	26.9 µM	–
CC(CCC(=O)O)(c1cc(Br)c(O)c(Br)c1)c1cc(Br)c(O)c(Br)c1	> 100 µM	–
N.N.NCCCCN.O=C([O-])CCl.O=C([O-])CCl.O=C([O-])CCl.O=C([O-])CCl.[Pt+4].[Pt+4]	> 50 µM	–
Cc1cc(C)c2nc(Nc3nc(C)c(C)c(=O)[nH]3)nc(C)c2c1	9.14 µM	2.44 µM
CO/C=C(/C(=O)OC)c1ccccc1[C@H]1C[C@@H]1c1ccc(OC)cc1	> 100 µM	–

SMILES	TGI	GI50
O=C(/C=C(\O)C(=O)O)/C=C(\O)c1ccc(Cl)cc1	> 100 µM	–
O=C(N/C(=C\c1cc(Cl)ccc1Cl)c1nc2ccccc2[nH]1)c1ccccc1	> 100 µM	–
CCCCCCCCOCC(O)COC (configuration not stated)	> 100 µM	–
Nc1c(Cl)ncnc1NCC1(CO)CCC1	> 100 µM	–
CC(=N\O)/C(C)=N/O.CC(=N\O)/C(C)=N/O.[Pd]	4.8 µM	2.02 µM
COc1cc(OC)cc(-c2n[nH]nc2-c2ccc3c(c2)OCO3)c1	> 100 µM	0.764 µM
COc1ccc(NC(=O)CC(=O)n2nc(-c3ccccc3)c(N=Nc3ccc(C)cc3)c2-c2ccccc2)cc1	> 96.1 µM	–
C/C(=C/CC[C@](C)(OC1OC(CO)C(O)C(O)C1OC1OC(C)C(O)C(O)C1O)[C@H]1CC[C@]2(C)[C@@H]1CC[C@@H]1[C@@]3(C)CC[C@H](O)C(C)(C)[C@@H]3C[C@H](O)[C@]12C)CO (some centres not stated)	> 100 µM	–
CC(=O)O/N=C1\C=Cc2c(no[n+]2[O-])C1=O	45.4 µM	–
CC(CC(C)[C@H]1CCC2[C@H]3C(CC[C@@]21C)[C@@]1(C)CCC(O)C[C@H]1C[C@@H]3O)C(=O)O (some centres not stated)	> 100 µM	–
COC(=O)/C=C1\C(=O)N(C(C)=O)c2ccccc21	31.5 µM	–
O=c1cc(N2CCOCC2)oc2c(-c3ccccc3)cccc12	> 68.2 µM and 55.3 µM	9.09 µM
COC(=O)c1ccc2c(c1)CCN2C(=O)c1cc2c(cc1Br)OCO2	50 µM	–
CC(C)n1c2c(c3ccccc3c1=O)C(=O)c1ccccc1-2	> 100 µM	–
COc1cc(C2C3=C(COC3=O)N(CCO)c3cc4c(cc32)OCCO4)cc(OC)c1O (configuration not stated)	> 50 µM	> 16.1 µM
Nc1nc(-c2ccccc2)cc(-c2ccc(F)cc2)c1-c1ccc(Cl)cc1	> 100 µM	–
NC1=CN2c3ccccc3N(CC(=O)N3CCOCC3)C2C=C1 (configuration not stated)	> 100 µM	–
COc1ccccc1NC(=O)CC(=O)NNCC(=O)Nc1nc(-c2ccccc2)cs1	> 100 µM	–
O=C(/C=C/c1ccco1)c1ccc(Nc2ccnc3cc(Cl)ccc23)cc1	> 100 µM	10.9 µM
CC(=O)NC1=NC(=O)/C(=C/c2ccc(Cl)cc2Cl)N1C	> 100 µM	–
COc1ccc(OC)c(-c2cc(-c3ccc(Cl)cc3)nn2-c2ccc(S(N)(=O)=O)cc2)c1	20 µM	4.7 µM
O=C(O)C(C1NCCS1)N1Cc2ccccc2C1 (configuration not stated)	> 100 µM	–
CC1(C)OC2C(CO)OC(/N=C(\NC#N)Oc3ccccc3)C2O1 (configuration not stated)	> 100 µM	–
